Data taken from PubChem BioAssay AID504332 (National Center for Advancing Translational Sciences (NCATS), 2011).
In all, about 350,000 compounds went through this assay and about 31,000 (8.9%) were called active. Inconclusive results, whose numbers are uncertain, are shown with a selection of clear calls. Calls come from the whole dose curve; as a rule, active = well fitted inhibition curve with a large enough effect; inconclusive = small, poorly fitted or top-dose-only effect; inactive = no such curve, though single readings can be large or run the other way. Potencies beside an inconclusive call are fits to weak or partial responses and may not hold up.

Molecular target: Histone-lysine N-methyltransferase EHMT2 (Homo sapiens) (UniProt Q96KQ7)
UniProt Q96KQ7, sequence (Q96KQ7 whole entry, looked up): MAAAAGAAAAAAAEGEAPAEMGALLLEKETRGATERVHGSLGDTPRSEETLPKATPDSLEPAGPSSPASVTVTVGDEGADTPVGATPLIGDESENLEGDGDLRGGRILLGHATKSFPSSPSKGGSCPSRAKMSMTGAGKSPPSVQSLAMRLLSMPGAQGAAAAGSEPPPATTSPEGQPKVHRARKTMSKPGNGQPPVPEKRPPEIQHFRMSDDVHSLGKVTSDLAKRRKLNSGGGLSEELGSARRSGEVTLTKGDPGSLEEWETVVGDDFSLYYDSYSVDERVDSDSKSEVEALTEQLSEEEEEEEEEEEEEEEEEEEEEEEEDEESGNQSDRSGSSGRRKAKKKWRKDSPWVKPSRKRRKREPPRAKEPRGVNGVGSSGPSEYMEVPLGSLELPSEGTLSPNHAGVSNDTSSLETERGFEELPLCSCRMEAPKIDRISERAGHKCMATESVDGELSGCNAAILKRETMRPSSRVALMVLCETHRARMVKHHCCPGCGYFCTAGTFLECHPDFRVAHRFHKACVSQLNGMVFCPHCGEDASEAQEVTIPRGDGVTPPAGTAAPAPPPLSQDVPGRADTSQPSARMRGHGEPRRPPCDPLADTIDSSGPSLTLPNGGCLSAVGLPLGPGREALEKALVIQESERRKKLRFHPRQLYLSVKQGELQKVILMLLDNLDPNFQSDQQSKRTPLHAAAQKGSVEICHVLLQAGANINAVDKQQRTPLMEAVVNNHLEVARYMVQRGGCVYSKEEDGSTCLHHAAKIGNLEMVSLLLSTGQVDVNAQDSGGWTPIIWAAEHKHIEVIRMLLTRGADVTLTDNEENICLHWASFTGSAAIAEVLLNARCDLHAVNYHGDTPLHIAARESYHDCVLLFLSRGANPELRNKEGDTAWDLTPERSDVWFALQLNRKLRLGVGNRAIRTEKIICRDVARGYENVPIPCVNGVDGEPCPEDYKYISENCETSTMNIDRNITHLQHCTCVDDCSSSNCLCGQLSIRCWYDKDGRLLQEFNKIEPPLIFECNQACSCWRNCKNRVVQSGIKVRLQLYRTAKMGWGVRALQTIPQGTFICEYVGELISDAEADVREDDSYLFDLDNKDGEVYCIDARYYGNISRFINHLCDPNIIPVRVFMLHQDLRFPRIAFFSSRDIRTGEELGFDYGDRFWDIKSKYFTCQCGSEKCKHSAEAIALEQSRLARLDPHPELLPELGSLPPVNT
Assay: qHTS Assay for Inhibitors of Histone Lysine Methyltransferase G9a; note: nearly all actives have a fitted effect of over 75% in size
Settings: G9a H3K9 monomethylation, AlphaScreen, 2 h; activity, negative = inhibition: at 59 µM (top of the series) unless noted
How it was run: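 Readings reflect AlphaScreen signal from monomethyl-H3K9 antibody detection. HMT at 20 nM; substrate b-H3K9 500 nM; cofactor SAM 20 uM; 2 h RT reaction; compounds tested as titrations in qHTS with 15 min preincubation.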
% is set by controls: 0 for no effect and ±100 for the full control effect; potency is the fitted concentration of half-maximal effect; tags give direction and shape of the fitted curve.

SMILES	Potency	activity, negative = inhibition
O=C(Cc1ccccc1)NCC(=O)N1CCC2(CC1)NCCc1[nH]cnc12	inactive	–
COc1ccccc1NC(=O)CN1C(=O)CCS(=O)(=O)c2ccccc21	inconclusive: 25.1 µM [inhibitor, single point]	–
O=C(c1ccccc1)c1ccc(OCC(O)CNC2CCCc3ccccc32)cc1 (stereo not given)	active: 10 µM	–
NC(=O)c1ccccc1NC(=O)CCCN1C(=O)CCC1=O	active: 44.7 µM	–
CCOc1[nH]n(-c2ccc(Cl)cc2)c(=O)c1C=Nc1ccc(C)cc1	inconclusive: 89.1 µM [inhibitor, partial curve, poor fit]	–
CCCC(=O)n1nc(-c2ccccc2)nc1SC	active: 1.12 µM	–
O=C(CN1C(=O)NC2(CCCCC2)C1=O)Nc1cc(C(F)(F)F)ccc1N1CCOCC1	active: 50.1 µM	–
COc1ccccc1NC(=O)CCC(=O)OC(C)C(=O)c1ccccc1 (stereo not given)	inactive	–
CCCN(CC(=O)Nc1ccccc1OC)C(=O)c1cc2ccccc2o1	inactive	–
CC(C)Cc1nc(N2CCN(C(=O)c3ccco3)CC2)c(C#N)c2c1CCCC2	inconclusive: 56.2 µM [inhibitor, partial curve, poor fit]	–
CCOc1ccccc1CN1CCNC(=O)C1CC(=O)NC1CCCCCC1 (stereo not given)	inconclusive: 35.5 µM [inhibitor, partial curve, poor fit]	–
CCC(=O)Nc1ccc(S(=O)(=O)Nc2cccc(C)c2)cc1OC	inconclusive: 1.26 µM [inhibitor, full curve, poor fit]	–
COC(=O)C1=C(C)N(CCc2ccc(OC)cc2)C(=O)C1	inconclusive: 11.2 µM [inhibitor, partial curve]	–
CCOC(=O)c1ccc(NC(=S)NN)cc1	inconclusive: 28.2 µM [inhibitor, single point]	–
Cc1cc(N2CCOCC2)nc(SCC(=O)c2ccc(Cl)cc2)n1	inconclusive: 89.1 µM [inhibitor, single point]	–
CC(=O)Nc1ccc(C(=O)OCC(=O)Nc2ccc(N3CCOCC3)cc2)cc1	inconclusive: 44.7 µM [inhibitor, partial curve]	–
COc1cc2c(cc1OC)C(CSc1ccccc1C(=O)O)=NC(C)(C)C2	inconclusive: 7.08 µM [inhibitor, full curve, poor fit]	–
COCCCNC(=O)CSc1nc2cc3c(cc2c(=O)n1CCCCCC(=O)NCCc1ccc(OC)c(OC)c1)OCO3	inactive	–
CN(C)CCCN(C(=O)c1cc2ccccc2oc1=O)c1nc2ccc(F)cc2s1	inconclusive: 28.2 µM [inhibitor, single point]	–
COc1cccc(N=Nc2ccc3cccnc3c2O)c1	active: 7.08 µM	–
Cc1oc(C(C)(C)C)cc1C(=O)NC1CCN(Cc2ccccc2)CC1	inconclusive: 35.5 µM [inhibitor, partial curve]	–
Cc1ccccc1C(=O)Nc1sc(C)c(C)c1C(=O)c1ccccc1	active: 10 µM	–
Cc1[nH]c2ccccc2c1C(=O)CN1C(=O)NC2(CC(C)CC(C)(C)C2)C1=O (stereo not given)	inconclusive: 22.4 µM [inhibitor, single point]	–
COc1cccc(/C=N/Nc2ncc(C)c(=O)[nH]2)c1OC	active: 31.6 µM	–

SMILES	Potency	activity, negative = inhibition
CCCCn1c(N)c(N(CC(C)C)C(=O)c2cccc(S(=O)(=O)N3CC(C)OC(C)C3)c2)c(=O)[nH]c1=O (stereo not given)	inconclusive: 79.4 µM [inhibitor, partial curve, poor fit]	–
CC(OC(=O)c1cc(=O)[nH]c2ccccc12)C(=O)c1ccccc1 (stereo not given)	inconclusive: 89.1 µM [inhibitor, single point]	–
Cc1ccc(Nc2nc(N)nc(CSC(=S)N3CCN(c4ccccc4)CC3)n2)cc1	active: 35.5 µM	–
CC(C)CN(CC(C)C)S(=O)(=O)N1CCC(C(=O)NCc2ccc3c(c2)OCO3)CC1	inactive	–
O=C(O)c1ccc(C(=O)O)c(C(=O)c2ccc(NC(=O)c3ccccc3)cc2)c1	inactive	–
O=C(c1ccco1)N1CCN(S(=O)(=O)c2ccc(Oc3ccccc3)cc2)CC1	active: 35.5 µM	–
O=C(O)c1cccc(CN2C(=O)S/C(=C/c3cccc([N+](=O)[O-])c3)C2=O)c1	inconclusive: 70.8 µM [inhibitor, partial curve]	–
CCOC(=O)c1sc2ncn(C(C)C(=O)OCC)c(=O)c2c1C (stereo not given)	inactive	–
CCOC(=O)c1ccc(NC(=S)N(CCCN2CCN(C)CC2)Cc2cccs2)cc1	inconclusive: 56.2 µM [inhibitor, partial curve, poor fit]	–
COc1ccc2c(c1)OC(C)(C)C(c1ccccc1)C2c1ccc(OCCN2CCCC2)cc1 (stereo not given)	inconclusive: 2 µM [inhibitor, partial curve, poor fit]	–
CC(C)CCN1C(=O)c2ccc(C(=O)OCC(=O)N(C)C3CCS(=O)(=O)C3)cc2C1=O (stereo not given)	inconclusive: 89.1 µM [inhibitor, partial curve, poor fit]	–
O=S(=O)(c1ccc(Cl)cc1)N1c2ccccc2Oc2nc3ccccc3nc21	inconclusive: 28.2 µM [inhibitor, single point]	–
Cc1cc(C)c(C(N)=O)c(SCC(=O)c2cc(C)c(C)cc2C)n1	inconclusive: 35.5 µM [inhibitor, single point]	–
Cc1cccn2c(=O)c3cc(C(N)=S)c(=N)n(CCCN4CCOCC4)c3nc12	active: 44.7 µM	–
Cc1cccc(OCCN2CCOCC2)c1C	inconclusive: 89.1 µM [inhibitor, single point]	–
O=C(NCC(c1ccco1)N1CCCC1)c1ccc(S(=O)(=O)Nc2ccccc2F)cc1 (stereo not given)	inconclusive: 89.1 µM [inhibitor, partial curve, poor fit]	–
CCc1ccccc1NC(=O)Cn1cc(C(=O)c2ccc(Cl)cc2)c(=O)c2ccc(C)nc21	inactive	–
C/C(=N\OCC(=O)N/N=C/c1ccccc1O)c1cccs1	inactive	–
COc1ccc(-c2cc(CNC(=O)CN3CCN(C)CC3)on2)cc1	inconclusive: 44.7 µM [inhibitor, partial curve, poor fit]	–
CCN(CC)c1ccc(/C=N/N2CCN(Cc3ccccc3)CC2)c(O)c1	inconclusive: 11.2 µM [inhibitor, partial curve, poor fit]	–
COc1ccc([C@H]2C(C#N)=C([S-])N[C@](C)(O)[C@@H]2[n+]2ccccc2)cc1	active: 14.1 µM	–
CCN(CC)c1ccc(NC(=O)c2ccccc2F)cc1	inconclusive: 35.5 µM [inhibitor, single point]	–
O=C1CNC(=O)/C1=C\N1CCN(C(c2ccccc2)c2ccccc2)CC1	active: 44.7 µM	–
Cc1ccc(C(=O)N=c2sccn2C)o1	inconclusive: 89.1 µM [inhibitor, single point]	–

SMILES	Potency	activity, negative = inhibition
C#CCOCCOCCOCCNc1nc(N2CCN(C(=O)[C@H](CCCCN)n3cc(C(N)[C@H](C)CC)nn3)CC2)nc(N2CCN(C(=O)[C@H](CCC(=O)O)n3cc(C(N)[C@H](C)CC)nn3)CC2)n1 (stereo not given in full)	inconclusive: 2.82 µM [inhibitor, partial curve, poor fit]	–
Cc1ccc2c(c1)=C(c1sc(N(C)c3ccc(O)cc3)nc1O)C(=O)N=2	active: 44.7 µM	–
Cc1ccccc1CN1CCC(N2CCC(C(=O)NCC3CCCO3)CC2)CC1 (stereo not given)	inactive	–
Cc1ccc(CN2C(=O)CCC2C(=O)NCCN(CC(C)C)CC(C)C)cc1 (stereo not given)	–	inconclusive: -71.2% [inhibitor]
CCOC(=O)c1nn(-c2ccc(F)cc2)c2c1CC/C2=C/c1ccccc1	active: 70.8 µM	–
Cc1cccc(N2CCN(C(=O)COCc3cc(-c4ccc5c(c4)OCO5)on3)CC2)c1C	inactive	–
Cc1ccccc1-c1nc2c3c(-c4ccccc4)c(-c4ccccc4)oc3ncn2n1	inactive	–
CCOC(=O)c1c(/N=C/c2cc(OC)cc([N+](=O)[O-])c2O)sc(C)c1C	active: 20 µM	–
CCC(CC)c1nnc(NC(=O)CCS(=O)(=O)Cc2ccccc2)s1	active: 17.8 µM	–
N#CC1=C(SCc2ccccc2)NC(=O)CC1c1ccco1 (stereo not given)	inconclusive: 25.1 µM [inhibitor, single point]	–
COc1ccc(S(=O)(=O)N2CCN(CC(=O)Nc3ccc(F)c(F)c3)CC2)cc1	active: 44.7 µM	–
COc1cccc(-c2ccnc3c(-c4ccccc4)c(C)nn23)c1	inactive	–
CCC1(C)Cc2c(C#N)c(N)sc(=S)c2CO1 (stereo not given)	inconclusive: 31.6 µM [inhibitor, partial curve, poor fit]	–
CCCCn1c(NCc2ccccc2NS(=O)(=O)c2ccc(C)cc2)nc2ccccc21	–	inactive: 6.69% [at 12.7 µM]
CC(=O)N(Cc1ccc2c(c1)OCO2)C1CC(=O)N(CCc2ccccc2)C1=O (stereo not given)	inconclusive: 28.2 µM [inhibitor, single point]	–
COC(=O)c1ccc(-c2ccco2)n1Cc1ccccc1Cl	active: 28.2 µM	–
CC(C)CCNC(=O)c1cnn2c(C(F)(F)F)cc(-c3ccco3)nc12	inconclusive: 28.2 µM [inhibitor, single point]	–
COc1ccc(C)cc1S(=O)(=O)Nc1ccc(F)c(Cl)c1	inconclusive: 10 µM [inhibitor, full curve, poor fit]	–
NS(=O)(=O)c1ccc(NC(=S)NCC2CCCO2)cc1 (stereo not given)	active: 11.2 µM	–
CCOc1cc(CNCCc2ccc(S(N)(=O)=O)cc2)ccc1OCC(=O)NC1CCCCC1	inactive	–
CN(CC(=O)OCC(=O)NCC(F)(F)F)S(=O)(=O)c1ccc(Cl)cc1	inactive	–
CCc1ccc2c(O)c3c(cc2c1C(=O)OC)C(=O)c1c(O)ccc(O)c1C3=O	–	inconclusive: -86.3% [inhibitor] [at 2.33 µM]
